According to article PMC4336329 (PLoS ONE, 2015):
Hit rate of the full screen: of about 310,000 compounds, about 14,000 (4.5%) showed an effect of 50% or more. Effects have a minus sign here. Some of the results follow.

Biological target: human ether-à-go-go-related gene (hERG) potassium channel (human, UniProt Q12809)
Experiment: primary screen, population patch clamp on CHO cells stably expressing hERG
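Further: peak tail current of the secondary pulse compared with the same well before compound.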

Sequence of human ether-à-go-go-related gene (hERG) potassium channel (Q12809 whole entry, looked up): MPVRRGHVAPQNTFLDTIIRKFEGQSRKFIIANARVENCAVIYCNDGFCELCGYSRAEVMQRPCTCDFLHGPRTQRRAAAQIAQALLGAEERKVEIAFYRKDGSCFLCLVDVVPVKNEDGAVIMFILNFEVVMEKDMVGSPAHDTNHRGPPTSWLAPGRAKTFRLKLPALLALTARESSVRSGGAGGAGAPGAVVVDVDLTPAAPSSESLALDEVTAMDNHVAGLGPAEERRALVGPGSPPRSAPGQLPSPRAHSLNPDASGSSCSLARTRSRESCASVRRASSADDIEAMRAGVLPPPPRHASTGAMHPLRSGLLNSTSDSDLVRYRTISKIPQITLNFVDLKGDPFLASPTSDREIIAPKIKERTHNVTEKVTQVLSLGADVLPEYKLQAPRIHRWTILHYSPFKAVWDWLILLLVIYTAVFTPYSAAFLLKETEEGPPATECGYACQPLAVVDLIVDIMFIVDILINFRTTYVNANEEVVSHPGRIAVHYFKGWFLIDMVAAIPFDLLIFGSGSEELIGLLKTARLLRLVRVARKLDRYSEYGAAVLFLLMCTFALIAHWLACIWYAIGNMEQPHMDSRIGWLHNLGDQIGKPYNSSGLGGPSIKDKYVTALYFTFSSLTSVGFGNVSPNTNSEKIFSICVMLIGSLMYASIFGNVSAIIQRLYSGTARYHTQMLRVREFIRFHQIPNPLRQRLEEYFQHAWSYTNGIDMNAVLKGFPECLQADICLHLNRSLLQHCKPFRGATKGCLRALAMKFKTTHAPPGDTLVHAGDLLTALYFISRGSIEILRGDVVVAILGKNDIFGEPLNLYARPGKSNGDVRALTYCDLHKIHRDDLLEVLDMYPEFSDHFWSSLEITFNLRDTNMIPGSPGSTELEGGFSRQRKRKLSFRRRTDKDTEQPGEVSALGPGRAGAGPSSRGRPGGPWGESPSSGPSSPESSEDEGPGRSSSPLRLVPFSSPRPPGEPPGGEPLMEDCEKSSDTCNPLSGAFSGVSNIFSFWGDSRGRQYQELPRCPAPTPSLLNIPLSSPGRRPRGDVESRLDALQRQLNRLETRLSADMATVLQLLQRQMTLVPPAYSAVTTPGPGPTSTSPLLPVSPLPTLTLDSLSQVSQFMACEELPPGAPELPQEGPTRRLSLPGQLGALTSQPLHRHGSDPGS

| SMILES | hERG current change (%, negative = inhibition) at 10uM |
| --- | --- |
| CC1(NC(=O)c2cc(-c3cccs3)nn2-c2ccccc2)CCS(=O)(=O)C1 (centres unmarked) | -11.9% |
| CCN(CC)C(=O)c1cn(C)c2ccc(S(=O)(=O)N(CC)CC)cc2c1=O | 1.84% |
| O=C1CCc2cc(S(=O)(=O)N3CCCCC3)cc3c2N1CCC3 | 2.3% |
| COC(=O)[C@]1(Cc2ccccc2)N[C@H](c2ccc(-c3ccc(Cl)c(Cl)c3)cc2)[C@@H]2C(=O)N(C)C(=O)[C@@H]21.O=C(O)C(F)(F)F | 16.3% |
| Cc1cc(S(=O)(=O)Nc2ccc(C(=O)NCCCn3ccnc3)cc2)ccc1F | 8.81% |
| COC(=O)c1c(SCc2ccc(C#N)cc2)nc(=O)[nH]c1C | -76.9% |
| Cc1cc(OC(=O)c2ccc(S(=O)(=O)N(C)C)cc2)cc(=O)o1 | 2.13% |
| O=C(Cc1ccccc1)NC(NC(=S)Nc1cc(Cl)ccc1Cl)C(Cl)(Cl)Cl (centres unmarked) | 17.2% |
| Nc1nc2n(n1)C(c1ccccc1Cl)CC(c1ccc(F)cc1)N2 (centres unmarked) | -25.1% |
| CCc1ccc(CN2CCCC(CNC(=O)c3cccc(OC)c3OC)C2)cc1 (centres unmarked) | -54.1% |
| CC(=O)Nc1ccc(CCc2nc3ccccc3[nH]2)cc1 | 8.89% |
| COc1ccc(CCNCc2ccncc2)cc1.O=C(O)C(=O)O | -13.7% |
| COc1ccc(O)c(-c2cc(-c3ccc(F)cc3)n[nH]2)c1 | -0.00292% |
| CCOc1cc(CO)cc(Br)c1OCC(=O)Nc1ccccc1C | -8.23% |
| O=C(Cn1c(=S)[nH]c2ccccc2c1=O)N1CCN(c2ccc(F)cc2)CC1 | 2.95% |
| CCc1ccc(NC(=O)c2cc(S(=O)(=O)N3CCc4ccccc43)cn2C)cc1 | 2.37% |
| CN(CC(=O)Nc1c(Cl)cccc1Cl)C(=O)CNC(=O)C1CCCCC1 | 29.9% |
| COC(=O)C1=C(c2cc3ccccc3s2)C[C@@H]2CC[C@H]1N2C(=O)NCc1ccc(C(F)(F)F)cc1 | -8.39% |
| CCn1cc(C(=O)Nc2cc(C)ccc2C)c(=O)c2ccc(C)nc21 | 7.54% |
| CCO.Cc1nn(-c2ccccn2)c2c1C(c1ccsc1)C1=C(CCCC1=O)N2 (centres unmarked) | -16.1% |
| CCOC(=O)c1ccc(NC(=O)CCC2COc3ccccc3O2)cc1 (centres unmarked) | -0.575% |
| COCCn1c(-c2ccccc2)nc2ccccc21 | -2.7% |
| Cc1ccc(S(=O)(=O)N(C)CC(=O)N2CCCc3ccccc32)cc1 | -16.1% |
